T1: RBFOX1 RRM (Homo sapiens, UniProt Q9NWB1 109-208)
T1 sequence: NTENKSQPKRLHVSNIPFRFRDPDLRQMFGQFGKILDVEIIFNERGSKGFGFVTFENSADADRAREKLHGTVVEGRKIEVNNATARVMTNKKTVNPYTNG

B1: CUCUCUC (DNA:RNA)
RNA: GGGAGACCGGAAUUCAGAUUGUCCCUCUCUCUUAAAUCCCGUCGUAGCCACCA
DNA 1: CAATCTGAATTCCGGTCTCCC
DNA 2: TGGTGGCTACGACGGGATT
B2: ACACGAU (DNA:RNA)
RNA: GGGAGACCGGAAUUCAGAUUGUCCACACGAUUUAAAUCCCGUCGUAGCCACCA
DNA 1: CAATCTGAATTCCGGTCTCCC
DNA 2: TGGTGGCTACGACGGGATT
B3: CGCAAAA (DNA:RNA)
RNA: B1 RNA with U26G, U28A, C29A, U30A, C31A
DNA 1: CAATCTGAATTCCGGTCTCCC
DNA 2: TGGTGGCTACGACGGGATT
B4: CGAGGCA (DNA:RNA)
RNA: B2 RNA with A25C, C26G, C28G, A30C, U31A
DNA 1: CAATCTGAATTCCGGTCTCCC
DNA 2: TGGTGGCTACGACGGGATT
B5: CACGUUA (DNA:RNA)
RNA: B1 RNA with U26A, U28G, C29U, C31A
DNA 1: CAATCTGAATTCCGGTCTCCC
DNA 2: TGGTGGCTACGACGGGATT
B6: CUCAAAU (DNA:RNA)
RNA: B1 RNA with U28A, C29A, U30A, C31U
DNA 1: CAATCTGAATTCCGGTCTCCC
DNA 2: TGGTGGCTACGACGGGATT
B7: UAAGGUG (DNA:RNA)
RNA: B2 RNA with A25U, C26A, C28G, A30U, U31G
DNA 1: CAATCTGAATTCCGGTCTCCC
DNA 2: TGGTGGCTACGACGGGATT
B8: ACAGUUG (DNA:RNA)
RNA: B2 RNA with C28G, G29U, A30U, U31G
DNA 1: CAATCTGAATTCCGGTCTCCC
DNA 2: TGGTGGCTACGACGGGATT
B9: AGGUAGC (DNA:RNA)
RNA: B1 RNA with C25A, U26G, C27G, C29A, U30G
DNA 1: CAATCTGAATTCCGGTCTCCC
DNA 2: TGGTGGCTACGACGGGATT
B10: CUCACGU (DNA:RNA)
RNA: B1 RNA with U28A, U30G, C31U
DNA 1: CAATCTGAATTCCGGTCTCCC
DNA 2: TGGTGGCTACGACGGGATT
B11: AAAUAUA (DNA:RNA)
RNA: B2 RNA with C26A, C28U, G29A, A30U, U31A
DNA 1: CAATCTGAATTCCGGTCTCCC
DNA 2: TGGTGGCTACGACGGGATT
B12: GACUUAG (DNA:RNA)
RNA: B1 RNA with C25G, U26A, C29U, U30A, C31G
DNA 1: CAATCTGAATTCCGGTCTCCC
DNA 2: TGGTGGCTACGACGGGATT
B13: GGCGACA (DNA:RNA)
RNA: B1 RNA with C25G, U26G, U28G, C29A, U30C, C31A
DNA 1: CAATCTGAATTCCGGTCTCCC
DNA 2: TGGTGGCTACGACGGGATT
B14: UGAUAGC (DNA:RNA)
RNA: B1 RNA with C25U, U26G, C27A, C29A, U30G
DNA 1: CAATCTGAATTCCGGTCTCCC
DNA 2: TGGTGGCTACGACGGGATT
B15: UGGGACG (DNA:RNA)
RNA: GGGAGACCGGAAUUCAGAUUGUCCUGGGACGUUAAAUCCCGUCGUAGCCACCA
DNA 1: CAATCTGAATTCCGGTCTCCC
DNA 2: TGGTGGCTACGACGGGATT
B16: AGACCAC (DNA:RNA)
RNA: B2 RNA with C26G, G29C, U31C
DNA 1: CAATCTGAATTCCGGTCTCCC
DNA 2: TGGTGGCTACGACGGGATT
B17: CCGCUUG (DNA:RNA)
RNA: B2 RNA with A25C, A27G, G29U, A30U, U31G
DNA 1: CAATCTGAATTCCGGTCTCCC
DNA 2: TGGTGGCTACGACGGGATT
B18: UCCUACU (DNA:RNA)
RNA: B15 RNA with G26C, G27C, G28U, G31U
DNA 1: CAATCTGAATTCCGGTCTCCC
DNA 2: TGGTGGCTACGACGGGATT
B19: AUCGAGA (DNA:RNA)
RNA: B1 RNA with C25A, U28G, C29A, U30G, C31A
DNA 1: CAATCTGAATTCCGGTCTCCC
DNA 2: TGGTGGCTACGACGGGATT
B20: ACAGCAA (DNA:RNA)
RNA: B2 RNA with C28G, G29C, U31A
DNA 1: CAATCTGAATTCCGGTCTCCC
DNA 2: TGGTGGCTACGACGGGATT
B21: UCGAUCA (DNA:RNA)
RNA: B15 RNA with G26C, G28A, A29U, G31A
DNA 1: CAATCTGAATTCCGGTCTCCC
DNA 2: TGGTGGCTACGACGGGATT
B22: CGGAUAA (DNA:RNA)
RNA: B15 RNA with U25C, G28A, A29U, C30A, G31A
DNA 1: CAATCTGAATTCCGGTCTCCC
DNA 2: TGGTGGCTACGACGGGATT
B23: ACAUAAG (DNA:RNA)
RNA: B2 RNA with C28U, G29A, U31G
DNA 1: CAATCTGAATTCCGGTCTCCC
DNA 2: TGGTGGCTACGACGGGATT
B24: UAUAUCU (DNA:RNA)
RNA: B15 RNA with G26A, G27U, G28A, A29U, G31U
DNA 1: CAATCTGAATTCCGGTCTCCC
DNA 2: TGGTGGCTACGACGGGATT
B25: UCGCUCA (DNA:RNA)
RNA: B15 RNA with G26C, G28C, A29U, G31A
DNA 1: CAATCTGAATTCCGGTCTCCC
DNA 2: TGGTGGCTACGACGGGATT
B26: CUGGAUC (DNA:RNA)
RNA: B1 RNA with C27G, U28G, C29A
DNA 1: CAATCTGAATTCCGGTCTCCC
DNA 2: TGGTGGCTACGACGGGATT
B27: UUGGGCA (DNA:RNA)
RNA: B15 RNA with G26U, A29G, G31A
DNA 1: CAATCTGAATTCCGGTCTCCC
DNA 2: TGGTGGCTACGACGGGATT
B28: ACUGAGC (DNA:RNA)
RNA: B2 RNA with A27U, C28G, G29A, A30G, U31C
DNA 1: CAATCTGAATTCCGGTCTCCC
DNA 2: TGGTGGCTACGACGGGATT
B29: GUUUAGC (DNA:RNA)
RNA: B1 RNA with C25G, C27U, C29A, U30G
DNA 1: CAATCTGAATTCCGGTCTCCC
DNA 2: TGGTGGCTACGACGGGATT
B30: GAUGAAU (DNA:RNA)
RNA: B2 RNA with A25G, C26A, A27U, C28G, G29A
DNA 1: CAATCTGAATTCCGGTCTCCC
DNA 2: TGGTGGCTACGACGGGATT
B31: ACGAUCC (DNA:RNA)
RNA: B2 RNA with A27G, C28A, G29U, A30C, U31C
DNA 1: CAATCTGAATTCCGGTCTCCC
DNA 2: TGGTGGCTACGACGGGATT

Numbering of substitutions follows the chain as printed; changes in the protein carry UniProt numbers. Some of the results follow.

The test has as its target T1, RBFOX1 RRM. Description: EMSA; HiTS-Eq, 1 nM pool, 10 min; buffer printed only for the single-RNA assays: 10 mM Tris pH 7.5, 150 mM NaCl, 3.4 mM EDTA, 0.001% NP-40, 30 C. The conditions noted are these: tags: His6 N-terminal (pET28a); label: 5' 32P. Put shortly:
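A pool of RNA with 7 randomized nucleotides, 5′-radiolabelled and with DNA-annealed flanks, was equilibrated at 1 nM for 10 min in 50 µL with purified RbFox RRM, wild type or mutant, across increasing protein concentrations. Free RNA was separated by 8% native PAGE, excised, reverse-transcribed, barcoded by PCR and sequenced. Relative association constants were obtained from read-count changes of each RNA species versus the control reaction and normalised to the cognate motif.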
On the technique in general: In EMSA bound probe runs differently from free probe, usually more slowly.
For the molecule B1, the binding signal is 0.00875 KA relative to UGCAUGU.
The result for B2 reads 0.00137 KA relative to UGCAUGU; that for B3, 0.00557 KA relative to UGCAUGU; that for B4, 0.0146 KA relative to UGCAUGU.
The result for B5 reads 0.00221 KA relative to UGCAUGU; that for B6, 0.00185 KA relative to UGCAUGU; that for B7, 0.0193 KA relative to UGCAUGU.
The result for B8 reads 0.00829 KA relative to UGCAUGU; that for B9, 0.0132 KA relative to UGCAUGU.
On to B10, for which the binding signal is 0.00586 KA relative to UGCAUGU.
On to B11, for which the binding signal is 0.000271 KA relative to UGCAUGU.
Consider B12, for which the binding signal is 0.0127 KA relative to UGCAUGU.
To B13 belongs 0.00696 KA relative to UGCAUGU.
For the molecule B14, the binding signal is 0.0199 KA relative to UGCAUGU.
The result for B15 reads 0.016 KA relative to UGCAUGU; that for B16, 0.00152 KA relative to UGCAUGU.
Consider B17, for which the binding signal was 0.0253 KA relative to UGCAUGU.
The result for B18 reads 0.00647 KA relative to UGCAUGU.
On to B19, for which the binding signal was 0.00758 KA relative to UGCAUGU.
The result for B20 reads 0.00209 KA relative to UGCAUGU.
The result for B21 reads 0.00752 KA relative to UGCAUGU; that for B22, 0.0169 KA relative to UGCAUGU.
The result for B23 reads 0.00289 KA relative to UGCAUGU; that for B24, 0.00251 KA relative to UGCAUGU; that for B25, 0.00473 KA relative to UGCAUGU.
For B26, the binding signal is 0.0198 KA relative to UGCAUGU.
To B27 belongs 0.0113 KA relative to UGCAUGU; to B28, 0.0117 KA relative to UGCAUGU; to B29, 0.013 KA relative to UGCAUGU.
To B30 belongs 0.0146 KA relative to UGCAUGU; to B31, 0.00383 KA relative to UGCAUGU.

These data come from PMC9911399, “Two distinct binding modes provide the RNA-binding protein RbFox with extraordinary sequence specificity”.
